# Source: article PMC6919601, “Identification of Plasmodium dipeptidyl aminopeptidase allosteric inhibitors by high throughput screening” (PLoS ONE, 2019)
# Out of some 110,000 compounds screened, about 230 (0.21%) showed an effect of 50% or more. The list shows a part of the results.
# Molecular target: DPAP1 (Plasmodium falciparum, UniProt Q8IIJ9)
# Experiment: primary screen, percent inhibition; read by cleavage of a fluorogenic dipeptide substrate; higher = more effect of the substance
# Parameters: species or system P. falciparum D10 trophozoite lysates; single well
# 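Note: 30 min substrate incubation versus DMSO and 10 µM JCP410 controls.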
# Sequence of DPAP1 (Q8IIJ9 whole entry, looked up): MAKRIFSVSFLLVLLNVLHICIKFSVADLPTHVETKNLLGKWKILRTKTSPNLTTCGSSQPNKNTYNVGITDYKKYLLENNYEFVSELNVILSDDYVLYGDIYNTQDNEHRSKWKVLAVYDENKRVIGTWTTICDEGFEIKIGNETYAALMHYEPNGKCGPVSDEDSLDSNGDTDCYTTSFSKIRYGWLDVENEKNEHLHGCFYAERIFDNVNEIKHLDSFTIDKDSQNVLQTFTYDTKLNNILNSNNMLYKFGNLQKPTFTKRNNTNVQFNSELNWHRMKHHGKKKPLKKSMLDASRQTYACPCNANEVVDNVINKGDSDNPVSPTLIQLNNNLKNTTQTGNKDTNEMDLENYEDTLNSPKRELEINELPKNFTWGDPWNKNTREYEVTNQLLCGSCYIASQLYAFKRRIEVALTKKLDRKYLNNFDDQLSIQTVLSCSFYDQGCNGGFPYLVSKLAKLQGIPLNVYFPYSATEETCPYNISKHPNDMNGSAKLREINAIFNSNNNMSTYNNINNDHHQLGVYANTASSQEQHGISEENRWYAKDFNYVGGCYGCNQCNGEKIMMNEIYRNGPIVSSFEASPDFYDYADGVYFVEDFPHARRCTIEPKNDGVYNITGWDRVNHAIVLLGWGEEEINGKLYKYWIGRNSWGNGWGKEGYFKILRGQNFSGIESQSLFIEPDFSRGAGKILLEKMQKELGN
row,SMILES,% Inhibition @ 10 uM [%]
1,O=[N+]([O-])c1ccc(CN2CCN(c3ccc(F)cc3)CC2)cc1,-1.86
2,CNc1nc(OCC(F)(F)F)nc(OCC(F)(F)F)n1,-2.51
3,COc1cc(OC)c(C2C3=C(O)CC(C)(C)CC3=NC(C)=C2C(=O)N2CCOCC2)cc1OC (stereo not shown),0.851
4,O=C(Nc1ccc(S(=O)(=O)N2CCOCC2)cc1)c1ccc(Cl)cc1,0.528
5,O=C(CN1C(=O)S/C(=C\c2c(F)cccc2Cl)C1=O)Nc1ccccc1,4.18
6,Cc1cccc(-c2noc(CCC(=O)NC(C)(C)C)n2)c1,-0.45
7,CCOC(=O)c1nnn(-c2ccccc2OC)c1C(=O)OCC,-1.58
8,COCc1nc(O)c2c(n1)-c1ccccc1CC21CCCCC1,-0.294
9,CC12CC(NC(=O)N1Cc1ccccc1)c1cc(Br)ccc1O2 (stereo not shown),2.17
10,CC1(C)CC(NC2CC(C)(C)NC(C)(C)C2)CC(C)(C)N1,5.28
11,O=C(Nc1ccccc1)Nc1cc2ccccc2cc1NC(=O)Nc1ccccc1,-0.687
12,Cc1ccc2cc(CCC#N)c(Cl)nc2c1,0.895
13,c1cncc(-c2nn[nH]n2)c1,-1.14
14,CC(C)C[C@H](NC(=O)c1ccccc1CSc1ccccc1)C(=O)NCC#N,-1.41
15,COC(=O)c1ccc(/C=c2\sc3ncnn3c2=O)cc1,3.54
16,CN(C)CCCN1C(=O)C(O)=C(C(=O)c2ccccc2)C1c1ccccn1 (stereo not shown),3.79
17,Cc1cccc(-c2noc(CNC(=O)C(C)Oc3ccc(Br)cc3)n2)c1 (stereo not shown),1.94
18,O=C(Nc1ncc(CN2CCOCC2)s1)C12CC3CC(CC(C3)C1)C2,3.66
19,Cc1ccc(C(=O)C2=C(O)C(=O)N(CCN3CCOCC3)C2c2cccc(F)c2)cc1 (stereo not shown),-0.872
20,COc1ccccc1NC(=O)C1=C(C)N=C2CC(C)(C)CC(O)=C2C1c1ccccc1OC (stereo not shown),-4.12
21,CCOc1ccc(N(CC(=O)Nc2cccc(Cl)c2C)S(C)(=O)=O)cc1,-0.473
22,CCOc1cc2c(cc1/C=C1/SC(=O)N(CC(=O)N3CCN(c4ccccc4)CC3)C1=O)OCO2,0.189
23,O=[N+]([O-])c1ccc(N2CCN(Cc3c[nH]c4ccccc34)CC2)cc1,0.605
24,COc1ccc(/C=c2/sc3n(c2=O)C(c2ccc(N(C)C)cc2)C(C(C)=O)=C(C)N=3)c(OC)c1 (stereo not shown),-0.48
25,NS(=O)(=O)c1cccc(C(=O)NCc2ccccc2)c1,-5.47

row,SMILES,% Inhibition @ 10 uM [%]
1,O=C(CCCSc1nc(O)c2c3c(sc2n1)CCCC3)NCCCO,-4.76
2,Fc1ccccc1CSc1ccc(-c2cccs2)nn1,5.09
3,O=c1c2c(-c3ccc([N+](=O)[O-])cc3)csc2nc2n1CCCCC2,11.7
4,CCOC(=O)C1=C(C)N=C2SCC(=O)N2C1c1ccc(F)cc1 (stereo not shown),-2.91
5,N#CC1=C(N)Oc2cc(N)ccc2C1c1cccc(O)c1 (stereo not shown),-4.11
6,c1ccc(-c2noc(-c3cccc4ccccc34)n2)nc1,-0.436
7,CCC/N=c1\c(NC(=O)c2cccs2)c(O)oc2ccccc12,1.12
8,Cc1cc(N2C(N)=C(C#N)C(c3cc(CN4CCOCC4)c(C)s3)C3=C2CCCC3=O)no1 (stereo not shown),-2.79
9,Cc1cccc(NC(=O)CC2SC(Nc3cc(C)cc(C)c3)=NC2=O)c1 (stereo not shown),-0.992
10,CCN(CCCNC1=NS(=O)(=O)C(c2ccc(C(C)C)cc2)=C1C)Cc1ccccc1,0.623
11,COc1ccc(N2Cc3ccc(OC)c(OC)c3C2=O)cc1,-5.62
12,COC(=O)C1=C(C)N(C)C(C)=C(C(=O)OC)C1c1cc(Br)ccc1OC,17
13,O=[N+]([O-])c1ccccc1CN1CCN(c2ccccc2)CC1,-0.197
14,O=C1CC(NC2CCCC2)C(=O)N1c1ccc(Cl)cc1 (stereo not shown),-4.65
15,CC1C[C@@H](C(=O)NCC#N)N(C(=O)OCc2ccccc2)C1 (stereo partly shown),-1.5
16,CC(=O)c1cccc(NC(=O)CN(c2cccc(F)c2)S(C)(=O)=O)c1,3.58
17,COc1ccc(OC)c(NC(=O)c2ccc(C)s2)c1,0.431
18,CCC(C)NC(=O)Cn1c(=O)n(CCc2ccccc2)c(=O)c2c3c(sc21)CCCC3 (stereo not shown),2.93
19,CCOC(=O)c1cc(O)c2c(ccc3[nH]c(-c4ccccc4)cc32)n1,16.1
20,C=CCc1c(C)nc2ccc(C(=O)OCC)cc2c1Cl,1.27
21,Cc1ccc(Cn2c(C)c3cnn(CC(=O)NC4CCCC(C)C4C)c(=O)c3c2C)cc1 (stereo not shown),-2.17
22,Cc1c(-c2ccccc2)nc2c3ccccc3ccn12,4.52
23,CCC(C)NC(=O)C1CCN(S(C)(=O)=O)CC1 (stereo not shown),2.05
24,N#CC1C(=O)N=C(N2CCCCC2)NC12CCCCC2 (stereo not shown),1.91
